Laboratory results published in the supplement of paper PMC3334620.
In all, about 33,000 sequences were measured (“E-score (-0.5 to 0.5)”: median about -0.016, highest 2% from about 0.32 on). Some of the results follow.

These sequences were tested against T1, Stp1 (UniProt B3LFK1) (assay: PBM E-score (8-mer binding enrichment) (E-score (-0.5 to 0.5)); higher = stronger / more preferred TF binding; most listed sequences are background and not binding sites). Settings: protein concentration: 200 nM; construct: GST-full length.
T1 sequence: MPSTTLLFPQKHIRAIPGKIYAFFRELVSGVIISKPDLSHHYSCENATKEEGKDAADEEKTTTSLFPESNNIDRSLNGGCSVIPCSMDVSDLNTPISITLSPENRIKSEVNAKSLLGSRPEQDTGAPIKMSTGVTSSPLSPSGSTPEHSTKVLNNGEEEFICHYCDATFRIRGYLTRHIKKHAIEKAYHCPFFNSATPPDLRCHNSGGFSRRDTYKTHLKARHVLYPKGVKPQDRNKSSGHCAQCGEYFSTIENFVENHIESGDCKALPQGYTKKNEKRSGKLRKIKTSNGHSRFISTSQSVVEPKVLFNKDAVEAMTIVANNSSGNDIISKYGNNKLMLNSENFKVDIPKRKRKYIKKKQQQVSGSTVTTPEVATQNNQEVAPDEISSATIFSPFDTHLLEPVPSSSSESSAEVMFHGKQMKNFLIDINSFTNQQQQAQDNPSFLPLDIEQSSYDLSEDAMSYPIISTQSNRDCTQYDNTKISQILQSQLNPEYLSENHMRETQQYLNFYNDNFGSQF
Description: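 Universal 'all 10-mer' protein binding microarrays (Agilent AMADID 015681) probed with GST-tagged S. cerevisiae TFs (full-length or DBD) made by in vitro transcription/translation (PURExpress), about 100-200 nM. Bound TF was detected with fluorescent anti-GST. Each ungapped 8-mer (which stands for itself and its reverse complement) is scored by the PBM enrichment score (E-score), a modified Wilcoxon-Mann-Whitney statistic from -0.5 to +0.5, computed with the Universal PBM Analysis Suite. Scale: above 0.35 generally sequence-specific binding.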

Sequence	PBM E-score
GCGGGGAA	-0.00444
AGTTAAGG	-0.0459
ATCGCGGG	-0.168
AGTCTGAG	-0.161
ACTGCTCG	-0.0391
CTATTTAA	0.0116
TAGGAATA	-0.0335
ACATAGCA	0.0267
GTCTTTAA	0.0478
CCGTATAG	0.188
GCAGAAGA	0.0471
AGACATAA	0.0682
CCAGTACG	0.0588
CTACGTGC	0.0735
ATTTTATG	0.0902
GTCGCTTA	0.0681
GTGCCCTA	0.218
AATCCCAG	-0.0827
CTAGCGAC	-0.134
TATCGGAA	0.0528
AGTCCATC	-0.179
GCAGTATA	0.0785
GAGTACGA	0.0292
GCCATGGA	-0.147
TCGGCTCA	-0.0668

Sequence	PBM E-score
ACCTGGCT	-0.234
AACATGAC	0.00759
CGTCGCGA	0.165
GTGGACCA	-0.0846
AATGTTCA	-0.00134
CAAGAAGG	-0.116
CGTCAAGC	-0.0973
GTCCGTGA	-0.00593
CACTCTGC	-0.129
CGGGGGCC	-0.3
GGTCGGTA	-0.0473
AGACTGAT	-0.0452
GATGCACC	-0.0503
AGGACTAG	-0.167
CTAACCAC	0.0781
ACTGCTTC	-0.207
CGTTTGTC	0.144
GATTGCCC	-0.0886
AACACCAA	0.0246
AGTACAAG	-0.037
ATACAACG	0.0808
ATCATTTC	0.0949
ACCGAGCG	0.114
CTAAAACC	0.0673
CGGCCTAG	-0.183

Sequence	PBM E-score
ACTACTCA	0.14
ACGTACGT	-0.00852
AAAGGCAC	0.392
CGCGTCGA	0.15
ACAGCACG	0.0746
CGTTCCAC	0.00117
TAGTCCAA	-0.079
AGGCCTGG	-0.349
ACACAGCG	0.262
TCCGTGCA	0.258
GTGATGGA	-0.212
ATTAAAGA	0.156
ATGTTTGC	-0.134
TCGTTCCA	-0.0826
AGTACTGG	-0.188
ACATCGTA	0.0549
ACATACGA	0.206
CAAGCCAA	0.082
GAGTAGCA	-0.0825
CAGACTAC	0.0144
CTTAATTA	0.039
CAACCTTA	-0.0202
ATAGACTC	-0.314
ATCATAAA	0.105
GGAATAAA	0.075

Sequence	PBM E-score
CGGACCTA	-0.0968
GGGTCCAA	-0.219
TAAGTACA	0.0848
ATTTAATC	0.148
CCAAGTTA	-0.0429
TTCCGAAA	-0.0464
GGTCCGTA	0.0291
CAGGAATA	-0.0333
ACACTCCC	-0.223
CATTTTCA	0.142
CGGACGCC	0.185
ACATCCGG	-0.202
GCTTGGGA	-0.0458
ACAGCGTC	-0.105
CACTGGAG	-0.156
AGGAGCCT	-0.0891
ATCAGCAG	0.0401
AATGGCCT	0.106
GGATGGAA	-0.132
CGTCTGAA	-0.0304
GGTAAAGA	0.13
CTGTACCC	-0.13
ATTAAATG	0.0917
AATGAGTA	0.0887
GCGGTGCA	0.0253

Sequence	PBM E-score
ATAGCCAA	-0.0158
AATTTTAA	0.183
GGTTCGCA	-0.149
CTGGCTTA	-0.194
AACTGGGT	-0.116
ACGATTTG	0.124
CTATTAGC	0.203
ACCTTCCG	-0.0752
AAATGCCC	-0.108
CAGTGATA	-0.0612
AATTTAAG	0.0361
AATTCCAG	0.0141
CATCCTCA	-0.0408
GCCGGTAC	-0.0677
AAGAGAGA	-0.129
GCGCATCC	0.0373
GTATACAA	0.0557
CCATTGGG	-0.271
GGCAGTAC	0.111
ATTTCAAG	-0.0264
AATCTCAC	-0.0391
GTACGGGA	0.0383
AAAAGCTT	-0.0455
CAGTACAA	0.0526
ACATGTCC	-0.0333

Sequence	PBM E-score
CATTCCCG	0.0968
CATTAACC	0.128
ATCAGTCG	0.0722
ATGAATTA	0.175
CCTACGTC	-0.238
ACTGTTCT	-0.054
AAAACCAA	0.207
ATTCACTC	0.143
ACGAGACA	-0.112
GTGTCAAA	0.188
AAAGGCCG	0.277
GGGGAGTA	-0.21
ATACTTGG	-0.132
AATGGGTG	-0.213
ATCTATGG	-0.175
ACGCCCTC	0.0547
ATTGGCTC	0.0423
CGAAGGTC	-0.237
ATCGGGGG	-0.339
GACAAAAA	0.16
CGTTGCGC	0.247
AGCGAAAT	-0.0393
GCGAAAGA	-0.0909
GAATACAA	0.112
AACGGTAC	0.207

Sequence	PBM E-score
CTCGTGTC	-0.0913
CTACTTTA	-0.00743
TGAGTCAA	-0.0858
AGCCAGCA	-0.297
GCATTCGC	-0.0355
AATGATCA	0.0814
CATCTATA	0.0866
CCGCCCGG	0.14
GAGCAGTA	0.0417
GCCTCAGC	0.152
AATTATGC	0.236
ATCGAATC	0.0726
GCAAATGC	0.164
CCGCCGAC	-0.0454
AATTAGGT	0.0597
CGGACGTA	0.0486
CGTTAGTC	-0.0636
ATCTCCCG	-0.208
ACTAGGAA	-0.161
AGCGACCA	-0.0329
CTCTGAAA	0.0291
ATTAAGCC	0.136
